27 molecules from PubChem BioAssay AID1508624 (National Center for Advancing Translational Sciences (NCATS), 2021) can be followed below.

The structures appear in SMILES notation. Hit rate of the full screen: of about 48,000 compounds, about 120 (0.25%) were called active. Not shown: some 4% with an inconclusive outcome. The call rests on the fitted dose curve; in most records, active means well fitted activation curve with a large enough effect; inconclusive means small, poorly fitted or top-dose-only effect, or another doubt; inactive means no such curve, though single readings can be large or run the other way. The list shows a part of the results, in another mix than the full data. Where no call is shown, the source filed none.

The nature of this assay: Primary qHTS for Identification of Small Molecule Activators of Huntingtin-Antisense Promoter Activity. Further: nearly all actives have a fitted effect of over 55% in size. The conditions noted are these: HEK293 HTT-AS promoter firefly luciferase reporter, 24 h; activity change, positive = activation: at 57.5 µM (top of the series), percent change from vehicle, -100% = no light. The method, boiled down: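 Firefly luciferase signal from promoter-reporter HEK293 cells was scaled between vehicle (0%) and zero RLU (-100%). Compounds were tested at final concentrations of up to 57.5 uM over 24 h at 37 degrees C. PTC124 at 50 uM final served as control inhibitor.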
Turning to `CCCOc1ccc(C2C(=O)N(C3CCC(C)CC3)CC(=O)N2CCc2ccccc2)cc1OC` (configuration not stated), the activity change, positive = activation was -10.6%.

For the molecule `Cc1ccc(NC(=O)/C=C\C(=O)N(c2ccc(C(C)C)cc2)C(C(=O)NCc2ccco2)c2ccc(Cl)cc2)cc1` (configuration not stated), the activity change, positive = activation was -39.2%. Regarding `CC1CCN(c2nn3c(=O)c(C(=O)NCCCOC(C)C)cnc3s2)CC1`, the activity change, positive = activation turned out to be 4.83%.

For the molecule `CN(C)c1ccc(/C=C/c2nc(-c3ccccc3O)n(-c3ccccc3)n2)cc1`, the activity change, positive = activation is -6.23%. The result for `COc1ccc(NC(=O)c2c(C)oc3ccc(O)c(CN4CCC(C)CC4)c23)cc1Cl` reads -24.6%; that for `O=C(CSc1nc2ccccc2nc1Cc1ccc(Cl)cc1)Nc1ccc2c(c1)OCO2`, 6.06%; that for `COCCNC(=O)c1cnc2sc(N3CCCCC3)nn2c1=O`, -4.63%. As for `O=c1c(-c2ccc(Cl)cc2)c(C(F)(F)F)oc2c(CN3CCCCC3)c(O)ccc12`, the activity change, positive = activation is -10.8%.

As to `Cc1ccc(NS(=O)(=O)c2ccc3c(c2)CC(C)N3C(=O)C2CCC2)cc1Cl` (configuration not stated), the activity change, positive = activation was -42.7%.

With `CCOc1ccc(CCNC(=O)c2cnc3sc(N4CCC(C)CC4)nn3c2=O)cc1`, the activity change, positive = activation turned out to be 6.79%.

As for `O=C(NCc1ccc(Cl)cc1)C1CCN(S(=O)(=O)Cc2ccccc2)CC1`, the activity change, positive = activation is -0.597%.

In the case of `CN(Cc1ccccc1)C(=O)c1cc(-c2cccc(Cl)c2)on1`, the activity change, positive = activation is 3.18%. The figure for `CC(C)Oc1ccc(CNC(=O)C2CCCCN2S(=O)(=O)c2ccc(F)cc2)cc1` (configuration not stated) is -16.8%; for `CCOc1ccc(CCNC(=O)c2cccc(-n3c(C)nc4cccnc43)c2C)cc1` it is inactive: -24.2%.

As for `CCOCCCNC(=O)c1cnc2sc(N3CCCCC3)nn2c1=O`, the activity change, positive = activation amounted to 5.77%.

`Cc1c(CCC(=O)NCCc2ccc(Cl)cc2)c(=O)oc2c(C)c(O)ccc12`: the activity change, positive = activation stood at 5.68%. The result for `Cc1cc(C)n(C(C)CC(=O)Nc2cccc(C(F)(F)F)c2)n1` (configuration not stated) reads inactive: -18.2%.

Regarding `COc1ccc(S(=O)(=O)NCC(c2ccco2)S(=O)(=O)c2ccc(C)cc2)cc1F` (configuration not stated), the “activity change, positive = activation” value is inactive: -8.49%.

Regarding `CCOC(=O)c1ccc(NC(=O)CC2C(=O)N(c3ccc(F)cc3)C(=O)N2Cc2cccnc2)cc1` (configuration not stated), the activity change, positive = activation is -9.25%.

Take `Cc1c(CCC(=O)NCCc2ccccc2)c(=O)oc2c(C)c(O)ccc12`: the activity change, positive = activation was 15.9%. Take `O=C(NCc1ccc(Cl)cc1)c1cnc2sc(N3CCOCC3)nn2c1=O`: the activity change, positive = activation is -3.34%. With `COc1ccc(NC(c2nnc(-c3ccccc3)o2)c2ccccc2F)cc1Cl` (configuration not stated), the activity change, positive = activation is -11.5%.

For the molecule `Cc1ccc(-c2cc(C(=O)Nc3cc([N+](=O)[O-])ccc3C)no2)cc1F`, the activity change, positive = activation was found to be 3.71%.

Regarding `O=C(NCCc1ccc(Cl)cc1)c1cnc2sc(N3CCOCC3)nn2c1=O`, the activity change, positive = activation is -1.03%. The result for `COc1cc(OC)c(Nc2nc3ccccc3c3nncn23)cc1Cl` reads -0.685%. The result for `O=C(NCc1ccccc1Cl)c1ccc2c(c1)NC(=O)C(CS(=O)(=O)Cc1ccc(F)cc1Cl)N2` (configuration not stated) reads -24.6%. Consider `COc1cccc(-c2cc(C(=O)Nc3c(C)nn(Cc4ccccc4Cl)c3C)no2)c1`, for which the activity change, positive = activation is -25.7%.
